Measurements as given in the supplement of paper PMC10338343.
± gives the standard deviation. Only a part is listed here, and it is no random draw.

Each sequence was assayed on MIWI (PIWIL1) piRISC loaded with L1MC piRNA (30 nt) (assay: pre-steady-state target cleavage rate (min^-1); MIWI and MILI are mouse PIWI proteins and EfPiwi is from a freshwater sponge; tags in brackets are library labels; higher = faster piRNA-guided slicing of the target). Conditions: guide: L1MC piRNA 5'p-UAACUAAAUACUAUGCAAGCUGUAGGUCCU; auxiliary factor: 500 nM mouse GTSF1.
Protocol: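 Cleave-'n-Seq: a library of target RNAs (target site embedded in constant flanks, ACAGCATTCCGCGTTAGTGATATCCG... 5' flank; DNA-blocked outside the site) at 0.1 nM was incubated with 1 nM active mouse MILI or MIWI piRISC (synthetic 5'-monophosphorylated piRNA guide) with or without 500 nM mouse GTSF1 at 33 °C for 1 min to 16 h. Uncleaved targets were sequenced and normalised to non-target controls, and the pooled three trials were fitted to a burst-and-steady-state model to give the pre-steady-state cleavage rate (min^-1; k3 is constrained to at most 1e-4). Sequence is the target site only; target names encode pairing extent (gX:gY) and contiguous / 1-mismatch / 2-mismatch / bulge geometry. Fits with R² ≤ 0 are excluded.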

| Sequence | pre-steady-state target cleavage rate |
| --- | --- |
| UCCUGCUACAGCUUGCAAAGUAUAUAGUUA | 0.311 ± 0.042 |
| UCCUGGAUGUGCUUGCAUUGUAUUUAGAUA | 0.0181 ± 0.0038 |
| UGGACCUACAAGCUUGCAUAGUAUUUAGUUA | 1.03 ± 0.058 |
| UCCUGCUACAGCUUGCUUAGUAUUUAGAUA | 0.126 ± 0.022 |
| UCGACCUACUGCUUGCAUAGUAUUUACAAA | 0.237 ± 0.027 |
| UGGACCUACAGCUUGCAUAGUAGUUAGUUA | 0.821 ± 0.048 |
| UGGUCCUACAGCUUGCAUAGAAUUUAGUUA | 0.377 ± 0.023 |
| UCCUCCUACAGCUUGCAUAGUAUUUAUUUA | 0.382 ± 0.029 |
| UCCACCUACAGCUUACAUAGUAUUUAGUUA | 0.753 ± 0.034 |
| UCCUGCUAGAGCUUGCAUAGUAUUUAGUUA | 0.49 ± 0.049 |
| UCCACCUACAGCUUGGAUAGUAUUUUGUUA | 0.712 ± 0.046 |
| UCCUGCUACAGCGUGCAUAGUAUUUAGUUA | 1.27 ± 0.074 |
| AGGACCUACAGCUUCCAAAGUAUUUAGUUA | 0.524 ± 0.034 |
| UCCUGGAACAGCUUGCAUAGUACUUAGUUA | 0.835 ± 0.057 |
| UGGACCUUCAGCUUGCAUAGUAUUAAGUUA | 0.846 ± 0.045 |
| UCCUGGAUCAGGUUGCAUAGUUUUUAGUUA | 0.0569 ± 0.0093 |
| AGGACCUUCAGCUUGCAUAGUAUUUUGUUA | 1.06 ± 0.064 |
| UCCUCCAUCAGCUUGCAUAGUAUUUAGUUA | 0.739 ± 0.027 |
| UCCAGCUACAGCUUGCAUAGUAUUUACAAA | 0.313 ± 0.036 |
| UGGACCUACAGCUUGCAUAGUAAUUUCAAA | 0.129 ± 0.038 |
| UCCUGGUACAGCAUGCAUACUAUUUAGUUA | 0.335 ± 0.051 |

Same assay, conditions: guide: L1MC piRNA 5'p-UAACUAAAUACUAUGCAAGCUGUAGGUCCU; auxiliary factor: none (no GTSF1)

| Sequence | pre-steady-state target cleavage rate |
| --- | --- |
| UCCUGCUACAGCUUGCAAAGUAUAUAGUUA | 0.0109 ± 0.0021 |
| UCCUGGAUGUGCUUGCAUUGUAUUUAGAUA | 0.0063 ± 0.0025 |
| UGGACCUACAAGCUUGCAUAGUAUUUAGUUA | 0.0528 ± 0.0098 |
| UCCUGCUACAGCUUGCUUAGUAUUUAGAUA | 0.0072 ± 0.0023 |
| UCGACCUACUGCUUGCAUAGUAUUUACAAA | 0.00606 ± 0.0017 |
| UGGACCUACAGCUUGCAUAGUAGUUAGUUA | 0.031 ± 0.0074 |
| UGGUCCUACAGCUUGCAUAGAAUUUAGUUA | 0.0231 ± 0.0041 |
| UCCUCCUACAGCUUGCAUAGUAUUUAUUUA | 0.0175 ± 0.003 |
| UCCACCUACAGCUUACAUAGUAUUUAGUUA | 0.0222 ± 0.0039 |
| UCCUGCUAGAGCUUGCAUAGUAUUUAGUUA | 0.0297 ± 0.0053 |
| UCCACCUACAGCUUGGAUAGUAUUUUGUUA | 0.0292 ± 0.0047 |
| UCCUGCUACAGCGUGCAUAGUAUUUAGUUA | 0.0183 ± 0.005 |
| UCCUGGAACAGCUUGCAUAGUACUUAGUUA | 0.0535 ± 0.01 |
| UGGACCUUCAGCUUGCAUAGUAUUAAGUUA | 0.0295 ± 0.0069 |
| UCCUGGAUCAGGUUGCAUAGUUUUUAGUUA | 0.00915 ± 0.0026 |
| AGGACCUUCAGCUUGCAUAGUAUUUUGUUA | 0.0688 ± 0.013 |
| UCCUCCAUCAGCUUGCAUAGUAUUUAGUUA | 0.0679 ± 0.013 |
| UCCAGCUACAGCUUGCAUAGUAUUUACAAA | 0.0031 ± 0.0021 |
| UCCUGGUACAGCAUGCAUACUAUUUAGUUA | 0.0183 ± 0.0033 |
